According to the supplement of paper PMC12217912:
The list shows a part of the results. The full chains were built here from the parent and the listed change. Values near 0.05 are background.

B1: TEV protease; numbered along this chain (parent)
chain: MGESLFKGPRDYNPISSSICHLTNESDGHTTSLYGIGFGPFIITNKHLFRRNNGTLVVQSLHGVFKVKDTTTLQQHLVDGRDMIIIRMPKDFPPFPQKLKFREPQREERICLVTTNFQTKSMSSMVSDTSCTFPSGDGIFWKHWIQTKDGQCGSPLVSTRDGFIVGIHSASNFTNTNNYFTSVPKNFMELLTNQEAQQWVSGWRLNADSVLWGGHKVFMVKPEEPFQPVKEATQL

Variants of: B1
Experiment: raw area under fraction-flipped curve 0-4 h after induction (AUC4h, not background-subtracted), DNA-recorder readout of cleavage of the substrate (dimensionless); higher = more cleavage of the substrate by the protease variant
Conditions: temperature: 34 °C; time window: 0-4 h after rhamnose induction
Experimental: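 In vivo DNA recorder in E. coli TOP10(DE3) ΔrhaA at 34 °C. Each TEVp single-site mutant (parent TEVp 0) is paired with a single-site variant of the 7-mer TEVs (canonical ENLYFQ|S). The substrate sits between flexible linkers in a Bxb1-sfGFP-TEVs-SsrA fusion, so cleavage stabilises Bxb1 and speeds flipping of a recombination array, read by NGS. The value is the raw area under the fraction-flipped curve over 0-4 h after rhamnose induction (AUC4h), with ≥20 reads per time point. It is not background-subtracted; inactive controls average about 0.047.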
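Note: Bxb1 expression induced with 0.2% (w/v) L-rhamnose at OD600 near 0.5, cultures sampled hourly, flipped fraction per protease–substrate barcode pair counted by paired-end Illumina sequencing.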

| Variant | area with substrate ENLYFQA | area with substrate ENLYFQC | area with substrate ENLYFQD | area with substrate ENLYFQE | area with substrate ENLYFQI | area with substrate ENLYFQK | area with substrate ENLYFQN | area with substrate ENLYFQP | area with substrate ENLYFQR | area with substrate ENLYFQS | area with substrate ENLYFQT | area with substrate ENLYFQV | area with substrate ENLYFQY | area with substrate ENLYFQF | area with substrate ENLYFQH | area with substrate ENLYFQL | area with substrate ENLYFQM | area with substrate ENLYFQG | area with substrate ENLYFQQ | area with substrate ENLYFQW |
| --- | --- | --- | --- | --- | --- | --- | --- | --- | --- | --- | --- | --- | --- | --- | --- | --- | --- | --- | --- | --- |
| E3C | 0.109 | 0.133 | 0.0682 | 0.0696 | 0.0519 | 0.0715 | 0.0751 | 0.0622 | 0.0604 | 0.124 | 0.0642 | 0.0597 | 0.0724 | – | – | – | – | – | – | – |
| E3R | 0.078 | 0.135 | – | – | 0.0819 | 0.0618 | – | – | – | 0.0905 | 0.0534 | 0.0591 | – | 0.0936 | 0.0833 | 0.0634 | 0.0658 | – | – | – |
| P9R | 0.111 | 0.143 | 0.0847 | – | 0.0644 | 0.0615 | 0.0814 | 0.0479 | 0.0527 | 0.127 | 0.0608 | 0.0597 | 0.0699 | 0.117 | – | 0.0622 | 0.111 | 0.16 | 0.0527 | 0.0701 |
| R10D | 0.0946 | 0.105 | 0.0553 | 0.0596 | – | – | 0.0819 | 0.0634 | 0.0645 | 0.0969 | 0.0705 | 0.0681 | – | – | 0.0655 | 0.083 | 0.0819 | 0.0861 | 0.0728 | 0.0636 |
| D11P | 0.0685 | 0.0754 | – | 0.0719 | 0.0664 | 0.0563 | 0.0648 | 0.0596 | 0.0547 | 0.0651 | 0.0641 | – | 0.0622 | 0.0608 | – | 0.0403 | 0.0427 | 0.0534 | 0.065 | – |
| Y12C | 0.0712 | 0.0941 | – | 0.0563 | 0.0601 | 0.0592 | 0.0808 | – | 0.0744 | 0.096 | 0.0718 | – | – | – | 0.08 | 0.0607 | 0.0632 | 0.0907 | 0.0815 | – |
| Y12M | 0.112 | 0.121 | – | – | 0.0559 | 0.066 | 0.0722 | 0.0444 | 0.0617 | 0.106 | 0.073 | 0.0485 | 0.0872 | – | 0.0766 | 0.0528 | – | 0.105 | – | – |
| Y12N | 0.124 | 0.131 | – | – | – | – | 0.0525 | 0.0395 | 0.0517 | 0.0986 | 0.0627 | – | – | 0.106 | – | 0.056 | 0.0856 | – | – | 0.0661 |
| N13F | 0.0963 | 0.0918 | 0.0835 | – | 0.0651 | 0.0846 | 0.0669 | 0.0677 | 0.0585 | 0.0946 | 0.0622 | 0.0705 | 0.0691 | 0.0671 | 0.0749 | 0.0551 | 0.0795 | 0.0867 | 0.069 | 0.0667 |
| N13H | 0.1 | 0.131 | – | – | 0.0797 | 0.0674 | 0.0841 | 0.0515 | 0.0545 | 0.101 | 0.0718 | 0.0578 | 0.0959 | – | – | 0.0708 | 0.103 | 0.114 | – | 0.063 |
| P14E | 0.107 | 0.12 | 0.0761 | 0.0667 | – | 0.059 | 0.0746 | – | 0.0622 | 0.101 | 0.0645 | – | – | 0.0814 | 0.0845 | – | 0.0962 | 0.0968 | – | – |
| P14H | 0.104 | 0.0938 | 0.0609 | 0.0701 | 0.0509 | – | 0.0933 | 0.0687 | 0.0273 | 0.101 | – | 0.0511 | – | 0.0747 | 0.0946 | 0.0904 | 0.0893 | – | 0.0686 | 0.0717 |
| P14K | 0.104 | 0.068 | – | – | 0.0488 | – | 0.0521 | – | 0.0603 | 0.0918 | – | 0.0566 | – | 0.0709 | 0.0654 | 0.058 | 0.0783 | 0.0583 | – | – |
| S17P | 0.0864 | 0.116 | – | – | 0.0551 | 0.0767 | 0.0694 | 0.0575 | 0.056 | 0.0928 | 0.061 | 0.0587 | – | 0.069 | 0.0638 | 0.0563 | 0.0819 | 0.0943 | 0.0763 | 0.0645 |
| I19W | 0.0499 | 0.058 | – | – | – | 0.0587 | 0.043 | – | 0.041 | 0.0576 | – | – | 0.0428 | 0.0519 | 0.049 | 0.053 | – | 0.0559 | – | 0.0616 |
| C20W | 0.0414 | 0.0873 | 0.0455 | 0.0403 | 0.0382 | 0.0573 | 0.054 | 0.0416 | 0.0633 | 0.0476 | 0.0455 | 0.0488 | – | 0.0619 | – | 0.0367 | 0.0544 | 0.0476 | 0.0275 | 0.0364 |
| H21V | 0.0984 | 0.0997 | 0.0802 | – | 0.064 | 0.0622 | 0.0764 | – | 0.0629 | 0.0961 | 0.0769 | 0.0595 | 0.0755 | – | 0.0873 | 0.0615 | – | 0.104 | – | 0.0667 |
| L22C | 0.081 | 0.0965 | – | – | 0.059 | 0.093 | 0.0644 | – | 0.0607 | 0.0888 | – | 0.0575 | 0.0687 | – | 0.0687 | 0.0586 | 0.0682 | 0.0763 | – | – |
| L22D | 0.0491 | 0.0372 | 0.0249 | 0.0396 | 0.049 | 0.0507 | 0.0436 | – | 0.0455 | 0.0471 | 0.051 | – | 0.0348 | 0.0442 | 0.0498 | 0.0374 | 0.0525 | 0.0523 | – | 0.041 |
| L22H | 0.0596 | 0.0578 | – | – | 0.0351 | 0.043 | 0.049 | 0.0389 | 0.0432 | 0.0504 | 0.0552 | 0.038 | 0.0679 | 0.055 | – | 0.044 | 0.0614 | 0.0459 | 0.0647 | 0.0435 |
| L22S | 0.0508 | 0.0461 | – | 0.0518 | 0.0484 | 0.0465 | – | 0.0537 | 0.0508 | 0.0524 | 0.047 | 0.0568 | 0.0445 | 0.0399 | 0.0513 | 0.0477 | – | 0.0571 | 0.0419 | 0.045 |
| T23A | 0.0825 | 0.112 | – | – | 0.0543 | 0.0644 | 0.0638 | 0.0544 | 0.0646 | 0.0958 | 0.0591 | 0.0584 | – | – | 0.071 | 0.0569 | 0.0781 | 0.101 | 0.0646 | 0.0674 |
| T23K | 0.0607 | 0.0859 | – | – | 0.0596 | 0.0802 | 0.0677 | 0.0574 | 0.0735 | 0.0916 | 0.0568 | 0.0599 | 0.0784 | – | – | – | 0.0833 | 0.0776 | – | 0.0537 |
